Z-score data for 29 molecules are collected here from PubChem BioAssay AID488969 (Vanderbilt High Throughput Screening Facility, 2010).

SMILES strings stand for the structures. In all, about 110,000 compounds were measured (“z-score”: median about -0.1, highest 2% from about 2 on). Some of the results follow. The source made the active and inactive calls.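 How the source made its calls: active means z-score in the third read window above 3 or below -3; inactive means the rest.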

This test has as its target Metabotropic glutamate receptor 8 (Rattus norvegicus) (UniProt P70579). As to the kind of experiment: rat mGluR8 modulators via GIRK flux, primary screen, cell-based, thallium flux, HTS (AID 488969). The conditions noted are these: HEK293 rat mGluR8, GIRK (G protein-gated inwardly rectifying potassium channel) thallium flux, FluoZin2; at 10 µM; stronger effect = higher value; submaximal glutamate (EC20) added with thallium.
UniProt P70579, sequence (P70579 whole entry, looked up): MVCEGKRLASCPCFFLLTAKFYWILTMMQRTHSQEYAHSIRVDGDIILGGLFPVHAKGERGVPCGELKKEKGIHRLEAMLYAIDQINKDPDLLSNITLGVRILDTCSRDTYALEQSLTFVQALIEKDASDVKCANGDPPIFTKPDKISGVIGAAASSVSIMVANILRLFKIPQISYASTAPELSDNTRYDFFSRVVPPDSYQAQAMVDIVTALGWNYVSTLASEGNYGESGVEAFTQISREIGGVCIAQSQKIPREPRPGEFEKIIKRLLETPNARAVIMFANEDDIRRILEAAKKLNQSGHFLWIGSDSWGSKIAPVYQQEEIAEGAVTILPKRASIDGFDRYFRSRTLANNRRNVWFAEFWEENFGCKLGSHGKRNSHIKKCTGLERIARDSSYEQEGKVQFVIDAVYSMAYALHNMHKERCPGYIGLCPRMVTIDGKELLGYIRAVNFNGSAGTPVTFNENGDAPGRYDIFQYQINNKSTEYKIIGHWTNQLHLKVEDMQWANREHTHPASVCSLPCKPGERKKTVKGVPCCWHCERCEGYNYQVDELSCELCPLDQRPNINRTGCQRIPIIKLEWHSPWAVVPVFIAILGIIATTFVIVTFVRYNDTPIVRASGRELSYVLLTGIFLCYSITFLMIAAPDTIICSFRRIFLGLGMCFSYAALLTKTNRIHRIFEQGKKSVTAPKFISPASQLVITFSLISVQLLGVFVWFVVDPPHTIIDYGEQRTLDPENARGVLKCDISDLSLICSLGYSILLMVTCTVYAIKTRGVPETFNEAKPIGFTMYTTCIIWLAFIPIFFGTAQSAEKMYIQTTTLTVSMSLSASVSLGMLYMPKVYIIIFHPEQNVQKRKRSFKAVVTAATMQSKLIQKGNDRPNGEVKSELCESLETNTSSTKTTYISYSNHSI
`CCOC(=O)c1c(NC(=O)CSc2ncn[nH]2)sc(C)c1C`: the z-score is -2.21. In the case of `Cc1cc(C)nc(SCc2nnc(SCC(=O)N3CCCc4ccccc43)n2C)n1`, the z-score is -0.126.

For `CCCCn1c(SC(C)C(N)=O)nc2cc(C(=O)OC)ccc2c1=O` (centres undefined), the z-score was active: 3. In the case of `O=C(/C=C/c1ccc(S(=O)(=O)N2CCOCC2)cc1)NCc1ccccc1`, the z-score is -0.687. `Cc1cc(C)cc(Oc2ccccc2/C=C\C(=O)O)c1`: the z-score was -0.34. The value for `CCOc1ccccc1N1CCN(S(=O)(=O)c2cccs2)CC1` was active: -3.76. The value for `NC(=O)c1c(NC(NC(=O)c2ccco2)(C(F)(F)F)C(F)(F)F)sc2c1CCCC2` was -0.0885.

For the molecule `CCOC(=O)CCC(NC(=O)CCCC(=O)NC(CCC(=O)OCC)C(=O)OCC)C(=O)OCC` (centres undefined), the z-score stood at 0.886.

With `CCOc1cc2nc(-c3ccc(OC)c(OC)c3)nc(NCCCN3CCOCC3)c2cc1OC`, the z-score was -0.681. `CCOC(=O)C1C2C=CC3(CN(Cc4cccs4)C(=O)C13)O2` (centres undefined) registered a z-score of 0.19. For `COc1ccc(/C=C(\NC(=O)c2ccc(OC)c(OC)c2)C(=O)NCCc2c[nH]c3ccccc23)cc1`, the z-score was -0.337. In the case of `O=c1c2c(ncn2C2CCCC2)n(Cc2ccccc2)c(=O)n1CCOc1ccccc1`, the z-score was -0.52. In the case of `CCOc1ccc(-c2cc(C(=O)O)c3ccccc3n2)cc1`, the z-score is -0.933.

`O=S(=O)(c1ccc(NC(=S)Nc2ccc3c(c2)OCO3)cc1)N1CCOCC1` came in with a z-score of 0.154. `Cc1ccccc1N=Nc1c(C)[nH]n(C(N)=S)c1=O` yielded a z-score of 2.97. Next, `CC(=Nc1ccccc1C)C1=C(O)CSC1=O`: 0.486; `COC(=O)C1=C(C)NC(=O)C1(NC(=O)c1cccnc1)C(F)(F)F` (centres undefined): 0.884; `O=C(O)c1cc(-c2ccc(O)cc2)nc2ccccc12`: 0.225.

For `C=CCNC(=O)CN(c1ccc(OC)cc1OC)S(C)(=O)=O`, the z-score was determined as 0.109. As for `COc1cc2c(cc1OC)C(C)N(C(=O)Cn1ncc3c1-c1cc(C)ccc1OC3)CC2` (centres undefined), the z-score is -0.0587.

Take `COc1cccc(-c2nnc(SCC3CNC(=O)O3)n2-c2ccc(Cl)cc2)c1` (centres undefined): the z-score was -0.245. In the case of `Cc1cccc(OCC(=O)Nc2ccccc2-c2ccccc2)c1`, the z-score was -0.165.

On to `CC(C)NC(=O)NC(=O)COC(=O)CCOc1ccccc1`, for which the z-score is -0.289. Next, `COC(=O)CNC(=O)c1cccs1`: -0.513; `COc1ccc(CCn2c(C)c(C(C)=O)c3cc(OC(=O)c4ccco4)ccc32)cc1OC`: -0.48.

As to `COC(=O)C1=C(N)Oc2cc(C)n(CC3CCCO3)c(=O)c2C1c1ccccc1` (centres undefined), the z-score is -0.947. Next, `O=C(Nc1ccccc1-c1nnn(CC(=O)N2CCc3ccccc3C2)n1)C1CCC1`: active: -3.74; `Cc1c(C(=O)C(=O)N2CC=C(c3ccccc3)CC2)c2ccccc2n1C`: -0.486; `O=C(Nc1ccc2c(c1)OCCO2)C1CC1c1ccccc1` (centres undefined): -0.121.
